PMC4336329 (PLoS ONE, 2015)
Among all 310,000 compounds or so, about 14,000 (4.5%) showed an effect of 50% or more. The effect is printed as a negative number. The list shows a part of the results.

target: human ether-à-go-go-related gene (hERG) potassium channel (human, UniProt Q12809); test: primary screen, population patch clamp on CHO cells stably expressing hERG
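Further: peak tail current of the secondary pulse compared with the same well before compound.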

Chain of human ether-à-go-go-related gene (hERG) potassium channel (Q12809 whole entry, looked up): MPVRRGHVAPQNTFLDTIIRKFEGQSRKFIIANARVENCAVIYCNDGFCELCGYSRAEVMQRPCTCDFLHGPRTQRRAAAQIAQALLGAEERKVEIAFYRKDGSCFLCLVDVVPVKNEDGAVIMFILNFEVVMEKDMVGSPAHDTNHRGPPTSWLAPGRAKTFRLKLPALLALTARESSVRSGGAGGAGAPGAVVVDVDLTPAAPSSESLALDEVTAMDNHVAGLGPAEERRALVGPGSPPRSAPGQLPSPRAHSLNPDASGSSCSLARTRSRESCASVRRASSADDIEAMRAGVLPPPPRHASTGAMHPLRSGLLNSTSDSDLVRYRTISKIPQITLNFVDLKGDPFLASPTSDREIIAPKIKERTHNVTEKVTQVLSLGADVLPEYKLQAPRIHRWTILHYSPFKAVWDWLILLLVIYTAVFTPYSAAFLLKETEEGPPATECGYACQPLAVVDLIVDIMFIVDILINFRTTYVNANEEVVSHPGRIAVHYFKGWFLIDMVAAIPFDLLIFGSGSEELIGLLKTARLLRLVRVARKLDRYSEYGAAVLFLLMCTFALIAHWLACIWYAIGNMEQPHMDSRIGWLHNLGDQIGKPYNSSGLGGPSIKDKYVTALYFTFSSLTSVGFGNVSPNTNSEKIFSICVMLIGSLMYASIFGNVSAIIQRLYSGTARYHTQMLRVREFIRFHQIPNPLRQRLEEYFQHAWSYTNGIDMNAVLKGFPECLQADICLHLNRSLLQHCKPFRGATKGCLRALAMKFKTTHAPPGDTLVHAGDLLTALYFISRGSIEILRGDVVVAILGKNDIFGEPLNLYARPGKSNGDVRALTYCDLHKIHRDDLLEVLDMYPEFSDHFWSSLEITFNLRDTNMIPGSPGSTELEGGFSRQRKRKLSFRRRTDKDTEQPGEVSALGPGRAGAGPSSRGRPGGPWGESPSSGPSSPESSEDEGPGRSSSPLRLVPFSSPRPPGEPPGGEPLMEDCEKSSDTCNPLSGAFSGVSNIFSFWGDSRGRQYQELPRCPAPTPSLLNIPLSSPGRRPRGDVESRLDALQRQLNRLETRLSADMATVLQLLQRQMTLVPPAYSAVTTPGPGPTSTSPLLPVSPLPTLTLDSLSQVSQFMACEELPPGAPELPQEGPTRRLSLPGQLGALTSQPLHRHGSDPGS

| Structure (SMILES) | hERG current change (%, negative = inhibition) at 10uM [%] |
| --- | --- |
| CCOC(=O)N1CCC(NC(=O)c2ccc(CO)c(C(=O)NC3CCN(C(=O)OCC)CC3)c2)CC1 | 22 |
| Cc1ccc(-c2csc(NC(=O)c3ccco3)n2)cc1C | -15.6 |
| O=C(NO)c1ccccc1C(F)(F)F | 15.4 |
| CC1CN(C(=O)c2ccc(-c3cccc(C(F)(F)F)c3)o2)CC(C)O1 (centres unmarked) | -43.7 |
| C=CCn1c(C(C)NC(=O)c2ccccc2)n[nH]c1=S (centres unmarked) | -8.54 |
| COc1ccc(/C=C2\SC(=S)N(CCC(=O)Nc3ccc(O)cc3)C2=O)cc1 | 10.1 |
| O=C(NNC(=O)c1sccc1-n1cccc1)Nc1ccccc1 | 39.7 |
| Cc1nc2ccc(N=NC3=C(O)CC(C)(C)CC3=O)cc2s1 | -15.8 |
| CCOc1cc(C(=O)N2CCCN(C)CC2)cc(OCC)c1OCC | 14.8 |
| COC(=O)Cc1ccc(NC(=S)NCCSc2ccc(C)cc2)cc1 | -2.66 |
| O=C(Nc1nccs1)c1ccc(S(=O)(=O)N2CCOCC2)cc1 | -3.44 |
| CCN(CC)S(=O)(=O)c1cccc(-c2n[nH]c(=S)n2C)c1 | -51.8 |
| Cc1ccc(S(=O)(=O)NCCC(=O)Nc2ccc(S(=O)(=O)NC(C)C)cc2)cc1 | 8.45 |
| CCn1c(CC(=O)Nc2ccccc2C)nnc1SCC(=O)NC1=NCCS1 | 26 |
| O/N=C\c1ccccc1Oc1ccc(F)cc1 | 12.8 |
| Cc1cc(C(=O)N2CCN(c3ccc([N+](=O)[O-])cc3)CC2)co1 | -75.5 |
| Cc1ccc(C)c(N2N=C(C(=O)Nc3ccccc3N3CCOCC3)CCC2=O)c1 | -39.7 |
| O=C1CCN(Cc2ccc(Cl)cc2)N1 | 10.8 |
| CCc1ccc(S(=O)(=O)/N=C2\C=C(Nc3cccc(C(=O)O)c3)C(=O)c3ccccc32)cc1 | 24.1 |

| Structure (SMILES) | hERG current change (%, negative = inhibition) at 10uM [%] |
| --- | --- |
| CCCCOC(=O)c1ccc(NC(=S)NC(=O)c2c(Br)c(C)nn2C)cc1 | 22.3 |
| CCN(CC)S(=O)(=O)c1ccc(N2CCc3cc(OC)c(OC)cc3C2)nc1 | -24.1 |
| O=C1SCCC1NS(=O)(=O)c1ccc([N+](=O)[O-])cc1 (centres unmarked) | -40.2 |
| O=C(Nc1ccccc1Sc1ccccc1)c1ccccc1F | -0.719 |
| Cc1cc(=O)[nH]c(SCC(=O)N2CCCc3ccccc32)n1 | -12 |
| O=C(CSCc1ccc(Cl)cc1)c1ccco1 | -13.6 |
| CCCOc1ccc(-c2csc3nc[nH]c(=O)c23)cc1 | -2.62 |
| O=C(NCc1ccc(F)cc1)c1c2c(nc3ccccc13)CCN(Cc1ccccc1)C2 | -22.2 |
| CN1CCN(/N=C/c2nc(-c3ccccc3)n3ccccc23)CC1 | -19.9 |
| O=C(Nc1cccc(-c2nc3ccccc3[nH]2)c1)c1ccc(C(=O)Nc2cccc(-c3nc4ccccc4[nH]3)c2)cc1 | 12.5 |
| CC1(C)OC(=O)C(=CNCC(=O)NCC(=O)O)C(=O)O1 | 9.9 |
| Nc1ccccc1C(=O)N/N=C1/C2CN3CCN(C2)CC1(Cc1ccccc1)C3 | -37.8 |
| Cc1nn(C)cc1CNC(=O)Nc1ccc(Cl)cc1 | -16.6 |
| COc1cccc(C2=Nc3cccc4cccc(c34)N2)c1 | -13.3 |
| O=C(c1ccccc1)c1ccc(OCC(O)CN2CCCCC2)cc1 (centres unmarked) | -39.9 |
| CCN(CC(=O)NC1CCS(=O)(=O)C1)S(=O)(=O)c1ccccc1 (centres unmarked) | 7.7 |
| COc1ccc(-n2cnnc2SCC(=O)N(C)C2CCS(=O)(=O)C2)cc1 (centres unmarked) | -9.09 |
| O=C(c1ccc(Cl)c(S(=O)(=O)N2CCCCC2)c1)N1CCCCCC1 | -39.2 |
| CCOC(=O)c1c(C#N)c(SCC(=O)Nc2ccc(OC)cc2)nc2c1CN(CC)CC2 | -8.78 |

| Structure (SMILES) | hERG current change (%, negative = inhibition) at 10uM [%] |
| --- | --- |
| Cc1ccc(N2C(=O)c3ccccc3C2=O)cc1Cl | -41.5 |
| CC(=O)c1cccc(NC(=O)CN2CCN(S(=O)(=O)/C=C/c3ccccc3)CC2)c1 | -53.9 |
| CCOC(=O)c1c(NC(=O)c2cccc(N3C(=O)CCC3=O)c2)sc2c1CCN(CC)C2.Cl | -31.5 |
| O=C(CCN1CCN(Cc2ccccc2)CC1)NNC(=O)Nc1cccc(Cl)c1 | -47 |
| O=C(Nc1nc2ccccc2[nH]1)c1ccc(Cl)c(S(=O)(=O)N2CCCC2)c1 | -9.28 |
| CCCCCCNc1nc(OC)nc(N2CC3CC(C2)c2cccc(=O)n2C3)n1 (centres unmarked) | -27.9 |
| Cc1cc(C)n2nc(SCC(=O)Nc3ccccc3F)nc2n1 | -20.1 |
| CCOC(=O)C1(Cc2ccccc2)CCCN(Cc2ccc(OCCO)cc2)C1 (centres unmarked) | -1.04 |
| O=C(c1ccc(=O)oc1)N1CCCc2ccccc21 | -0.216 |
| Cc1ccc(-c2csc(NC(=O)c3ccc(Br)cc3)c2C(=O)O)cc1 | 46.9 |
| CCCNC(=O)C(CC)NC(=O)c1cccc([N+](=O)[O-])c1 (centres unmarked) | 14.3 |
| CCC(=O)NC(c1cccc([N+](=O)[O-])c1)c1c(O)ccc2ccccc12 (centres unmarked) | 18.2 |
| CCOc1ccc(C(C)=O)cc1COC(=O)CNC(=O)c1cccs1 | -8.49 |
| CC(C)CCn1c(Oc2ccccc2Cl)nc2c1c(=O)n(C)c(=O)n2C | -17.8 |
| O=[N+]([O-])c1cccc(-c2ncc3ccccn23)c1 | -24.5 |
| CC(=O)Nc1ccc(NC(=O)CSc2nnc3ccc(-c4ccc(F)cc4)nn23)cc1 | 16.8 |
| S=C(c1cn(CCOc2ccccc2)c2ccccc12)N1CCCC1 | 10.6 |
| COc1ccc(-n2nc(C(=O)NCC(=O)NCc3ccco3)c3ccccc3c2=O)cc1Cl | -6.17 |
